Three molecules from article PMC7718735 can be followed below.

Holding throughout (assay): two-hybrid; split-ubiquitin membrane yeast two-hybrid (MYTH) in S. cerevisiae; bait-Cub-LexA-VP16 strains mated with the arrayed Nub prey library, diploids spotted in quadruplicate on SD-leu-trp-ade-his with 25 mM 3-AT, imaged every 24 hr for 4 days; positive by a colony density cutoff
Test [1] has as its target T1, Cut11 MYTH bait (wild type) (S. pombe) (UniProt O13961).
T1 sequence: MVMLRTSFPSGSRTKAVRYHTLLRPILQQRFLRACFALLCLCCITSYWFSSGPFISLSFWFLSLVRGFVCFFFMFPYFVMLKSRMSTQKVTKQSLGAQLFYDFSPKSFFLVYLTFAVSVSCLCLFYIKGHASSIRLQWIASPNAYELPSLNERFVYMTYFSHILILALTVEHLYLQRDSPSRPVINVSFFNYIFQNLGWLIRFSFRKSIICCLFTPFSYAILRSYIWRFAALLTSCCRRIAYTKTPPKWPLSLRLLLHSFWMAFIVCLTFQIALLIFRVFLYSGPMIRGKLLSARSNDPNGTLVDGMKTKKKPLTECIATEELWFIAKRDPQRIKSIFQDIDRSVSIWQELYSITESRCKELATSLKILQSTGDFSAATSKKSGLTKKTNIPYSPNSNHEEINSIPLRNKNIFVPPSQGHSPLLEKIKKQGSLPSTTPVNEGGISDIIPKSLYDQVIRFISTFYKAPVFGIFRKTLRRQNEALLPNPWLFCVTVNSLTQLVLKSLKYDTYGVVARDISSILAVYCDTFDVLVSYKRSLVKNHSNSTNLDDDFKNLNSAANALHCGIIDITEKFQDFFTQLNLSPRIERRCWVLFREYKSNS

For test [2], the target named is T2, Lem2 MYTH bait (S. pombe) (UniProt Q10109).
T2 sequence: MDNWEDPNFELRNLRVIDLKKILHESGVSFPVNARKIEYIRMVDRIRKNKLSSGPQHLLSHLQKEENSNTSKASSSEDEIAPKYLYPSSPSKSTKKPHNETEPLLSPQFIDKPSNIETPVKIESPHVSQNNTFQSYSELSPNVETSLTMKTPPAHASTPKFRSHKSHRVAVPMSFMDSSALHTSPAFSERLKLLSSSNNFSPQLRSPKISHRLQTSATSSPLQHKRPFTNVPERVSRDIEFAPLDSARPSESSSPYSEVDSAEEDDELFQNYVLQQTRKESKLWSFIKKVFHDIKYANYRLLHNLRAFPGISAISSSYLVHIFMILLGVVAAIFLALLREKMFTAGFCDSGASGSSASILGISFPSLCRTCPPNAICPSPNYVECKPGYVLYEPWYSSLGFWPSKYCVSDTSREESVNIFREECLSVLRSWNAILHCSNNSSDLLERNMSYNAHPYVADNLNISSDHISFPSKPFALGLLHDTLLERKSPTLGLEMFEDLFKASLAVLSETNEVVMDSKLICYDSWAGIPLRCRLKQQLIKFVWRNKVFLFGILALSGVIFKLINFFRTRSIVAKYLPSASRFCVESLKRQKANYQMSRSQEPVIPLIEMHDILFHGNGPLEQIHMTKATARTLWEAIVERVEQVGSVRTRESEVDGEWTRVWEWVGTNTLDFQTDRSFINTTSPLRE

The target of test [3] is T3, Cut11 L521F MYTH bait (S. pombe) (UniProt O13961).
T3 sequence: T1 sequence with L521F

The target of test [4] is T4, Lem2 MYTH bait (S. pombe), Q10109.
T4 chain: T2 sequence
Conditions: remark: other sources report otherwise.

Test [5] deals with T5, Ima1 MYTH bait (S. pombe), O13681.
T5 chain: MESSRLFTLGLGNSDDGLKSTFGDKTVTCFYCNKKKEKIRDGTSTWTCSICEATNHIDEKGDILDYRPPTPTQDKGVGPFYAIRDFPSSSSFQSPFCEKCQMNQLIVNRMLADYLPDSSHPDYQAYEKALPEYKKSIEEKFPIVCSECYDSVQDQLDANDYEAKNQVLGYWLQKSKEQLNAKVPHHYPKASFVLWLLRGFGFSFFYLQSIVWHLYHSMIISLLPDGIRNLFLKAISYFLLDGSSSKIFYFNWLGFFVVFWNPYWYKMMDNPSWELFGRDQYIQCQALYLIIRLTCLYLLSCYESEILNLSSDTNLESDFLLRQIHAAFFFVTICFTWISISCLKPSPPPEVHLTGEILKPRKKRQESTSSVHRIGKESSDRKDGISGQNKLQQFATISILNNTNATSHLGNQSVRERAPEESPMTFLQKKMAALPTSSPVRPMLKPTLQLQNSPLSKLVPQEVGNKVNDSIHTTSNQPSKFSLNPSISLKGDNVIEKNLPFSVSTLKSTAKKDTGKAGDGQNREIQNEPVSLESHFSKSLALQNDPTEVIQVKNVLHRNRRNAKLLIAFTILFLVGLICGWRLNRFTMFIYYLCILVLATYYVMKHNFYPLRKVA
To be noted: remark: other sources report otherwise.

Where a chain is given by its changes, count along the chain named. Results are given in words; binding and its absence hold for the method and conditions named. Some results given as binding are weak or reduced against the parent protein; the word gives no strength.

Regarding “Sad1 MYTH prey (from UniProt Q09825 1-514)”, the binding entry in test [1], in test [2] and in test [3] was “binds” in each case.

B1: Red1 MYTH prey, Q9UTR8 1-712 (protein)
chain: MSRSINLDELRKKALESKKKNEEDESNDSDKEDGEISEDDPVIDQSNSVPPMKVPTFPEQIPQLPPFDRFPGTNANFFPFGAPFMLPPALMFGPNTVPFFPQTASSNKTFSKRKRSSENSFNNRNKAKSSETSDSSNTSQSFKENRALKDTATSRPLALSSDTSYQKSEKAKSEKSPFLSTSKNSDANYSKTTNQKEAEKAVSQLFEVGVRFNDFIAEGIEPSVVHTLFLKLGLDSSSASSQGSLTLSADKAARSAKLRKIDSNLSDTHILPGDNGTPTVLPERKNLISLPLLKQDDWLSSSKPFGSSTPNVVIEFDSDDDGDDFSNSKIEQSNLEKPPSNSENGLTMSRSDYLALLRNKEEEIRRMTKLILRLESNKKPYRSPTSAADMKLPSVPVAAVDNKSKTHLDTFEKVVDLSSKADFVEAGPSISSSGASSSAATTNSDTTEQILEAPWLRKTEQIAVVHEEHPAQIKKSEIDILNNLIEKEEGELTKYQTLVKSKTEILTQLYTRKKQLLEQQGKGNVACLPKESDLSMDSITEVSAQADENSSQILSSKTSNAPNGTTETDFEDKVPLVDYISPFYRFKSYRFNQQFVERVPLKYRSLTYSNKIEPMKVFCKYETTGGVCNDDHCEASHFRDIKMTDDEIIQDLSRYIEGNDEIEKESYKSGLDIVMKNTDENTDFVDVATRIVEYHNLWKSERMTIPVAKVSI
For the molecule B1, in test [4], the binding entry is listed as “no binding”.

B2: Sad1 MYTH prey, Q09825 1-514 (protein)
chain: MFTNTPVGGKRERQNGAHPAWSTLGANSAQIHQNTADLASKMHKLRYTKIRSPPTRVSIESITPKQRFPAPNFEQAYHSNIRYEQEESDNEEFENVVKNGHEASTNVFYESDGDDEEFVNEEYENSIDEESDDEGYSLNEDTTATNASFRYPMNQRSTRKSQFYSSKFKPLLWFGITLFSTLLIITLLHKGQEFYSRSFSSDNSQPSNSPVPNIPPASNDTKTSLKPDIIKDFTDSPSKVGGNEEFDYSTGDLITKKEFDKILQQKVEQLKQSLKEEMSNYKSSVPFEVELNDDWKFFIESTVRKYLTDPVSMPNFALLSTGAEVLPALTSKRYVRRPSAFIPRFTSYFFDSLVVRGHEPSIALTPNNAVAMCWSFQGSEGQLGISLSRPVYVTNVTIEHVQHKIAHDLSSAPKDFELWVQGMSSKMFVLLGKARYSLTEDSIQTFSFESSNYIVAEPIQNVILKIKSNWGNPNYTCLYQVRVHGTVPNADEQPIPSLGEKAESTAENTGQDSS
Take B2: the binding entry in test [5] is “no binding”.
